Paper PMC4336329 (PLoS ONE, 2015)
Out of some 310,000 compounds screened, about 14,000 (4.5%) showed an effect of 50% or more. Effects have a minus sign here. This is one part of the list.

molecular target: human ether-à-go-go-related gene (hERG) potassium channel (human, UniProt Q12809); test: primary screen, population patch clamp on CHO cells stably expressing hERG
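Also: peak tail current of the secondary pulse compared with the same well before compound.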

human ether-à-go-go-related gene (hERG) potassium channel, sequence (Q12809 whole entry, looked up): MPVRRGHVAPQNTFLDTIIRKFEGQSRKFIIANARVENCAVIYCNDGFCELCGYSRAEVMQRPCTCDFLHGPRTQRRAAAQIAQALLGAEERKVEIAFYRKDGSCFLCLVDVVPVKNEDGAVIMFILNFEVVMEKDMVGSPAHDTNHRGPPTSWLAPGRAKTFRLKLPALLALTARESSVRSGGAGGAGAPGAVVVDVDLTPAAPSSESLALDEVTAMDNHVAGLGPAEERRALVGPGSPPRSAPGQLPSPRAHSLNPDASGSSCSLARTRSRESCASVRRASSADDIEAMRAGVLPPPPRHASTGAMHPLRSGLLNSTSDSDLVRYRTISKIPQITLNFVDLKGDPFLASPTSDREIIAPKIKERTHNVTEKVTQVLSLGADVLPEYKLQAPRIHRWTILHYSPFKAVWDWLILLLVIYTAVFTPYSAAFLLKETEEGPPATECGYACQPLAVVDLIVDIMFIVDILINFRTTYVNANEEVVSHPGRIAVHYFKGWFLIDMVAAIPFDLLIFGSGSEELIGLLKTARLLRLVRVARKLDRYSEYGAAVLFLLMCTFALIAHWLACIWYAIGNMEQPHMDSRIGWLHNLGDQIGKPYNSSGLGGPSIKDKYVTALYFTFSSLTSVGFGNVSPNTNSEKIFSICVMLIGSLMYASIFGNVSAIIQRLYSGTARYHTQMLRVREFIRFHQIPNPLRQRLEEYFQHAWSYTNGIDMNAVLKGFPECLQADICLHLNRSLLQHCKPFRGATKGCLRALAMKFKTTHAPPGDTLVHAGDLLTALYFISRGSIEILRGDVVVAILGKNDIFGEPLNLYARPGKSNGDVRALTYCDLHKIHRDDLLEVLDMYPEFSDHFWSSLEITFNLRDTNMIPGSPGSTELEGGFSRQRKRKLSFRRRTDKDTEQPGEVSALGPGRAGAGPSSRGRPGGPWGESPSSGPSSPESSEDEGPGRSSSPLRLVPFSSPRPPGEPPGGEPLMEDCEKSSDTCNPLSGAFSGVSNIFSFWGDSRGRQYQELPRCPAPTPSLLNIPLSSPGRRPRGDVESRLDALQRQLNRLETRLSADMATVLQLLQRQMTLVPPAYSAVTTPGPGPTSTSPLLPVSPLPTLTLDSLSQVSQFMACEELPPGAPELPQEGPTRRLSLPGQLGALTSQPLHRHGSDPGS

In order of rising “hERG current change (%, negative = inhibition) at 10uM” value:
1. Cc1cccc(NC(=O)CN2CCN(C(=O)C(C)Oc3ccc(C#N)cc3)CC2)c1C (stereo not drawn)  -76.9%
2. CCN(CC)Cc1c(O)ccc2c(=O)c(-c3ccc(Cl)cc3)coc12  -58.4%
3. Cc1ccc2c(CN3CCC(C)CC3)cc(=O)oc2c1  -50%
4. Cc1c(-c2ccncc2)oc2ccc(Br)cc2c1=O  -41.2%
5. COc1ccc(-c2nnc(OCc3nc4ccccc4n3C)c3ccccc23)cc1  -40.2%
6. COc1ccc(N2CCN(C(CNC(=O)c3cccc(Cl)c3)c3cccnc3)CC2)cc1 (stereo not drawn)  -38.7%
7. CN(CC(=O)Nc1ccccc1Cl)C(=O)C1CCN(C(=O)c2ccc(Cl)cc2)CC1  -35.1%
8. CC(C)NC(=O)c1onc(CSc2ccc(F)c(F)c2)c1C(=O)NC(C)C  -34%
9. CSc1cccc(NC(=O)N2CCN(C)CC2)c1  -31.1%
10. Cc1ccc(C)c(N2CCN(C(=O)c3ccc(CS(=O)Cc4ccc(Cl)cc4)o3)CC2)c1 (stereo not drawn)  -26.9%
11. O=C(CSc1ccc2nnc(-c3ccncc3)n2n1)NCc1ccco1  -25.8%
12. Cc1ccc(C2CC(=O)c3cnn(-c4nc(C)cc(C)n4)c3C2)cc1 (stereo not drawn)  -20.2%
13. COc1ccc(C(=O)Nc2ccc(C(F)(F)F)n(C)c2=O)cc1  -19.5%
14. O=C(CN1CCOCC1)Nc1nc(-c2ccccc2Cl)cs1  -17.6%
15. CC12CN3CC(C)(CN(C1)C3c1ccc(Br)cc1O)C2 (stereo not drawn)  -17.3%
16. CC(NCc1nc2ccccc2n1C)C12CC3CC(CC(C3)C1)C2 (stereo not drawn)  -16.3%
17. Cc1cc(C(=O)OCC(=O)NCc2ccco2)c(C)o1  -10.7%
18. O=C(NCCCN1CCCC1=O)c1cn(-c2ccccc2)nc1-c1ccccc1  -10.6%
19. CC(=O)c1cn(Cc2ccc(F)cc2)c2ccccc12  -10.4%
20. Cc1nc2cc(NC(=O)c3ccc([N+](=O)[O-])s3)ccc2s1  -9.99%
21. CCCc1nc(SCC(=O)Nc2ccc(N3CCOCC3)cc2)c2ccccc2n1  -9.11%
22. O=C(NCc1ccco1)c1ccc(Cl)c(S(=O)(=O)N2CCOCC2)c1  -7.4%
23. O=C(NCc1nc(-c2ccccc2)no1)c1cccs1  -7.36%
24. CCOC(=O)C1CCN(C(=O)c2ccccc2N(C)S(=O)(=O)c2ccccc2)CC1  -7.23%
25. CC(=O)N1CC(=O)N(OCc2ccccc2)C1c1ccc(Cl)cc1Cl (stereo not drawn)  -6.23%
26. COc1cc2cc(CCCOC(=O)c3ccco3)oc(=O)c2cc1OC  -6.2%
27. Cc1ccc(NC(=O)[C@H](Cc2ccccc2)NC(=O)[C@@H]2Cc3ccccc3CN2)c(C)c1  -5.23%
28. Cc1noc(C)c1COC(=O)Cc1ccc(Cl)cc1  -5.13%
29. Cn1cnnc1SCC(=O)Nc1nc(-c2ccccc2)cs1  -4.33%
30. CC(C)(C)c1[nH]nc2c1C(Cc1ccccc1)C(C#N)=C(N)O2 (stereo not drawn)  -4.31%
31. CN(C(=O)c1ccc(N2CCOCC2)c([N+](=O)[O-])c1)C1CCCCC1  -4.07%
32. O=C(c1ccc(-n2c(SCc3cccc(F)c3)nc3ccccc3c2=O)cc1)N1CCOCC1  -3.57%
33. COc1ccc(/C=C2\SC(N3CCCCC3)=NC2=O)cc1OC  -2.88%
34. O=C(CSC(=S)N1CCN(c2ccccc2)CC1)Nc1nc(-c2ccccc2)c(-c2ccccc2)o1  -2.74%
35. CC(=O)Nc1ccc(Oc2ncccn2)c(Cl)c1  -2.38%
36. Nc1n[nH]c(C2CC2)c1N=Nc1ccc(Cl)cc1  -1.16%
37. COc1ccc(Cl)cc1NC(=O)NCc1ccco1  -0.66%
38. CC(C)CNC(=O)c1ccc2c(c1)C(=O)N(C1CCCCC1)C2=O  -0.062%
39. Cc1ccc(C2CC(=O)Nc3sc(C(N)=O)c(N)c32)cc1 (stereo not drawn)  0.514%
40. COc1ccccc1C(c1nnnn1C(C)C)N1CCN(C(=O)c2ccco2)CC1 (stereo not drawn)  1.24%
41. Cc1nnc(SCc2nnc(-c3cccs3)o2)n1C  1.31%
42. Cc1ccc(OCC(=O)Nn2cnnc2)c(Br)c1  1.46%
43. CC(=O)Nc1nc(-c2ccc3c(c2)CCN3S(C)(=O)=O)cs1  2.07%
44. CCC(CO)n1c(SCc2cc(=O)oc3cc(C)ccc23)nc2ccccc2c1=O (stereo not drawn)  2.16%
45. COc1ccc(/C=N/NC(=O)Cc2csc(Nc3cccc(C(F)(F)F)c3)n2)c(OC)c1  2.17%
46. COC(=O)[C@H](CC(C)C)NS(=O)(=O)c1ccccc1  2.21%
47. COCCN(C(=O)COC(=O)c1cc2ccccc2cc1OC)c1c(N)n(Cc2ccccc2)c(=O)[nH]c1=O  2.21%
48. CCOc1ccc(-c2c(C(=O)N/N=C/c3cccs3)nnn2-c2nonc2N)cc1  2.22%
49. Cc1cc(N2CCC(C)CC2)nc2ccc(N3C(=O)CCC3=O)cc12  2.53%
50. COc1ccc(CNC(=O)C/C(C)=N/NC(=O)Cc2ccc(OC)c(OC)c2)cc1  2.57%
51. Cc1ccsc1/C=N/NC(=O)c1ccccn1  3.44%
52. CC(C)CN(CC(C)C)S(=O)(=O)N1CCC(C(=O)NCc2cccs2)CC1  3.91%
53. C#CCCCCCCC#CCN(C)C.CC(=O)O  4.19%
54. Cc1ccc(F)cc1CNC(=O)c1cc(COc2ccc3ncccc3c2)on1  5.04%
55. CC(C)(C)C(=O)N1CCC[C@@]1(CO)C(=O)O  5.07%
56. CC(C)[C@H](NC(=O)c1ccc(Cl)c([N+](=O)[O-])c1)C(=O)NCc1ccc(Cl)cc1Cl  5.09%
57. Cc1nnc2sc(SCC(=O)N3CCCCC3)nn2c1=O  5.28%
58. CC1(C)CC(=O)/C(=N/Nc2ccc(Cl)cc2)CO1  6.07%
59. Cc1cc(CCC(=O)O)c(C)cc1CCC(=O)O  6.33%
60. Cc1occc1C(=O)NCc1cccc(CNC(=O)c2ccoc2C)c1  6.74%
61. CSCCNCc1c(C(=O)N2CCOCC2)nc2c(C)cccn12  7.33%
62. O=C(Nc1ccc(Br)cc1)Nc1ccccc1F  7.6%
63. O=C(CSc1nnc(-c2cc(-c3cccs3)nc3ccccc23)o1)NC1CCCCC1  7.67%
64. COc1ccc(NC(=S)N2CCN(c3ccccc3)CC2)c(OC)c1  7.83%
65. CCN(CC)CCCNC(=O)C1c2ccccc2Oc2ccccc21  7.86%
66. O=C(Nc1cccc(C(F)(F)F)c1)c1ccc2nc(-c3ccco3)c(-c3ccco3)nc2c1  7.95%
67. O=C(N/N=C/c1c[nH]c2ccccc12)c1cc(Cl)ccc1O  8.24%
68. Cc1c(Cl)cccc1-n1c(SCC(=O)N2CCC(C(=O)O)CC2)nc2ccccc2c1=O  8.42%
69. Cc1ccc(Nc2nc(N)nc(CSCCO)n2)cc1  8.72%
70. O=C(CSc1ccccn1)N1CCc2ccccc21  8.86%
71. Cc1cccc(C)c1NC(=S)N1CCC(c2ccccc2)C1 (stereo not drawn)  9.47%
72. O=C(/C=C/c1ccccc1)NC(=S)NNS(=O)(=O)c1ccccc1  9.78%
73. O=c1[nH]c2ccsc2c(=O)n1CCO  9.81%
74. CC(=O)NCC(=O)NC1(C(=O)NC2CCCC2)CCCCC1  10.1%
75. CCOC(=O)Cc1nn2c(=O)cc(C)nc2s1  10.7%
76. COc1ccccc1Nc1ncnc2nc[nH]c12  10.8%
77. CC(C)c1ccc(OCC(=O)NNC(=S)NC(=O)c2cccs2)c(Br)c1  11.3%
78. COc1ccc(-n2nc(C(=O)NCC(=O)NC(C)C)c3ccccc3c2=O)c(OC)c1  11.3%
79. COc1ccc(S(=O)(=O)N2c3cc(C)ccc3OCC2C(C)(C)C)cc1 (stereo not drawn)  11.6%
80. Cc1cccc(NC(=O)C2CCCN(C(=O)NCc3ccccc3)C2)c1C (stereo not drawn)  12.6%
81. O=S(=O)(c1cnccc1N1CCN(/N=C/c2ccc(Br)cc2)CC1)N1CCCCC1  13%
82. O=S(=O)(NC1=NCCCCC1)c1ccccc1Cl  14.7%
83. COc1cc(CNCC2CCCO2)ccc1OCC(N)=O.Cl (stereo not drawn)  16.3%
84. COc1cccc(C(=O)COc2ccc(NC(=O)c3cccs3)cc2)c1  17.5%
85. COc1cccc(/C=C/C(=O)OCC(=O)N2CCN(S(=O)(=O)c3ccc(Cl)cc3)CC2)c1  17.9%
86. CCOC(=O)c1sc2nc3c(cc2c1N)COC(C)(C)C3  18.7%
87. COc1ccc(OC)c(/C=C/C(=O)Nc2cccc(S(=O)(=O)N3CCCC3)c2)c1  23.4%
88. N#Cc1cc(C(=O)c2cc(Br)ccc2O)cn(Cc2ccccc2)c1=O  24.9%
89. CCOC(=O)N1CCN(c2cc(NCCO)c([N+](=O)[O-])c3nonc23)CC1  31.2%
90. CC1CCCCN1Cc1cccnc1.O=C(O)C(=O)O (stereo not drawn)  33%
